Structures can show the parent of a compound that is named as a salt.
Target: T1, δ-opioid receptor (Rattus norvegicus, UniProt P33533)
T1 construct: the forebrains are homogenized in Tris buffer in a Teflon®-glass homogenizer; from tissue; host or cells: forebrain of male Wistar rats (particulate membrane preparation)
Conditions: DOR binding Ki, rat brain δ opioid receptor binding; 10 nM solutions of the compounds

T1 sequence (P33533 whole entry): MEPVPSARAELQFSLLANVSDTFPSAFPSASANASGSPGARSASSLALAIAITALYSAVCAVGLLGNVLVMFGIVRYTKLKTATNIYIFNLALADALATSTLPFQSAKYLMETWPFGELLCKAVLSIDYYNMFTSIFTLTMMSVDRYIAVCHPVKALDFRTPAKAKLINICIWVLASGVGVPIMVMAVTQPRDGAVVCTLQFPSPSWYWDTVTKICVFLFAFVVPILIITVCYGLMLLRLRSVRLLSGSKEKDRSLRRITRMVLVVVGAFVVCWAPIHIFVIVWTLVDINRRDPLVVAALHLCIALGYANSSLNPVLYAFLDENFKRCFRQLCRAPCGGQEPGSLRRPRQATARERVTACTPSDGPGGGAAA

In order of rising Ki:
1. CCNC(=O)c1ccc(C(Br)=C2CC3CCC(C2)N3Cc2ccoc2)cc1 (single isomer, unassigned) [Cpd 211]  0.27 nM
2. CCNC(=O)c1ccc(C(=C2C[C@H]3CC[C@@H](C2)N3Cc2ccsc2)c2ccc(CO)cc2)cc1 (single isomer, unassigned) [Cpd 196, N-Ethyl-4-[(4-hydroxymethyl-phenyl)-(8-thiophen-3-ylmethyl-8-aza-bicyclo[3.2.1]oct-3-ylidene)-methyl]-benzamide]  0.56 nM
3. CCNC(=O)c1ccc(C(=C2CC3CCC(C2)N3Cc2ccsc2)c2cccc(-c3nnn[nH]3)c2)cc1 (single isomer, unassigned) [Cpd 216]  0.68 nM
4. CCNC(=O)c1ccc(C(Br)=C2CC3CCC(C2)N3Cc2ccoc2)cc1 [Cpd 26]  0.77 nM
5. CCNC(=O)c1ccc(C(C#N)=C2CC3CCC(C2)N3Cc2ccoc2)cc1 (single isomer, unassigned) [Cpd 209]  0.94 nM
6. CCNC(=O)c1ccc(C(C#N)=C2CC3CCC(C2)N3Cc2ccoc2)cc1 (single isomer, unassigned) [Cpd 210]  1.1 nM
7. CCNC(=O)c1ccc(C(=C2CC3CCC(C2)N3Cc2cccs2)c2cnc3ccccc3c2)cc1 [Cpd 64]  1.43 nM
8. CCNC(=O)c1ccc(C(=C2CC3CCC(C2)N3Cc2ccccn2)c2cnc3ccccc3c2)cc1 [Cpd 66]  1.97 nM
9. CCNC(=O)c1ccc(C(=C2CC3CCC(C2)N3Cc2ccco2)c2ccc3c(c2)OCO3)cc1 [Cpd 8]  2.26 nM
10. CCNC(=O)c1ccc(C(=C2CC3CCC(C2)N3Cc2ccc3c(c2)OCO3)c2cnc3ccccc3c2)cc1 [Cpd 65]  2.56 nM
11. CCNC(=O)c1ccc(C(=C2CC3CCC(C2)N3Cc2ccoc2)c2cnc3ccccc3c2)cc1 [Cpd 17]  4.04 nM
12. CCNC(=O)c1ccc(C(=C2CC3CCC(C2)N3Cc2ccc3ccccc3n2)c2cccc(C#N)c2)cc1 [Cpd 20]  4.73 nM
13. CCNC(=O)c1ccc(C(=C2CC3CCC(C2)N3Cc2ccc3ccccc3n2)c2cccc(F)c2)cc1 [Cpd 3]  9.3 nM
14. CCNC(=O)c1ccc(C(=C2CC3CCC(C2)N3Cc2ncc[nH]2)c2ccc3c(c2)OCO3)cc1 [Cpd 6]  9.96 nM
15. CCNC(=O)c1ccc(C(=C2CC3CCC(C2)N3CC=C(C)C)c2cccc(C(=O)O)c2)cc1 [Cpd 47, 3{(4-Ethylcarbamoyl-phenyl)-[8-(3-methyl-but-2-enyl)-8-aza-bicyclo[3.2.1]oct-3-ylidene]-methyl}-benzoic acid]  12.6 nM
16. CCNC(=O)c1ccc(C(=C2CC3CCC(C2)N3Cc2ccc3ccccc3n2)c2ccc3c(c2)OCO3)cc1 [Cpd 9]  13.9 nM
17. CCNC(=O)c1ccc(C(=C2CC3CCC(C2)N3Cc2sccc2C)c2ccc3c(c2)OCO3)cc1 [Cpd 12]  14.3 nM
18. CCNC(=O)c1ccc(C(Br)=C2CC3CCC(C2)N3Cc2cccs2)cc1 [Cpd 40]  14.4 nM
19. CCNC(=O)c1ccc(C(=C2CC3CCC(C2)N3Cc2sccc2C)c2cnc3ccccc3c2)cc1 [Cpd 18]  19.1 nM
20. CCNC(=O)c1ccc(C(=C2CC3CCC(C2)N3Cc2ccc3ccccc3n2)c2cnccn2)cc1 [Cpd 30]  20.4 nM
21. CCN(CC)C(=O)c1ccc(C(Br)=C2CC3CCC(C2)N3)cc1 [Cpd 49, 4-[(8-Aza-bicyclo[3.2.1]oct-3-ylidene)-bromo-methyl]-N,N-diethylbenzamide]  23.7 nM
22. CCNC(=O)c1ccc(C(Br)=C2CC3CCC(C2)N3Cc2ccoc2)cc1 (single isomer, unassigned) [Cpd 212]  28.4 nM
23. CCNC(=O)c1ccc(C(=C2CC3CCC(C2)N3Cc2ccsc2)c2cccc(-c3nnn[nH]3)c2)cc1 (single isomer, unassigned) [Cpd 215]  30.8 nM
24. CCNC(=O)c1ccc(C(=C2CC3CCC(C2)N3Cc2[nH]cnc2C)c2ccc3c(c2)OCO3)cc1 [Cpd 11]  33.9 nM
25. CCNC(=O)c1ccc(C(Br)=C2CC3CCC(C2)N3Cc2ncc[nH]2)cc1 [Cpd 22]  48.3 nM
26. CCNC(=O)c1ccc(C(=C2CC3CCC(C2)N3Cc2ccc(NC(C)=O)cc2)c2ccc3c(c2)OCO3)cc1 [Cpd 5]  49.2 nM
27. CCNC(=O)c1ccc(C=C2CC3CCC(C2)N3Cc2ccc(NC(C)=O)cc2)cc1 [Cpd 31]  59.2 nM
28. CCNC(=O)c1ccc(C(=C2CC3CCC(C2)N3CC#N)c2ccccc2)cc1 [Cpd 43, 4-[(8-Cyanomethyl-8-aza-bicyclo[3.2.1]oct-3-ylidene)-phenyl-methyl]-N-ethyl-benzamide]  86.3 nM
29. CCNC(=O)c1ccc(C(Br)=C2CC3CCC(C2)N3Cc2[nH]cnc2C)cc1 [Cpd 27]  134 nM
30. CCNC(=O)c1ccc(C=C2C[C@H]3CC[C@@H](C2)N3CCc2ccccc2)cc1 (single isomer, unassigned) [Cpd 41, (+)—N-Ethyl-4-(8-phenethyl-8-aza-bicyclo[3.2.1]oct-3-ylidenemethyl)-benzamide]  163 nM
31. CCNC(=O)c1ccc(C(Br)=C2C[C@H]3CC[C@@H](C2)N3)cc1 (single isomer, unassigned) [Cpd 92]  168 nM
32. CCNC(=O)c1ccc(C=C2CC3CCC(C2)N3Cc2ccsc2)cc1 [Cpd 33]  238 nM
33. CCNC(=O)c1ccc(C=C2CC3CCC(C2)N3Cc2ccco2)cc1 [Cpd 34]  281 nM
34. CCNC(=O)c1ccc(C(=C2CC3CCC(C2)N3Cc2ccco2)c2nnn[nH]2)cc1 (single isomer, unassigned) [Cpd 203]  284 nM
35. CCNC(=O)c1ccc(C(=C2CC3CCC(C2)N3Cc2ccc(NC(C)=O)cc2)c2cnc3ccccc3c2)cc1 [Cpd 14]  401 nM
36. CCNC(=O)c1ccc(C=C2CC3CCC(C2)N3CC(N)Cc2ccccc2)cc1 (centres unmarked) [Cpd 1, 4-[8-(2-Amino-3-phenyl-propyl)-8-aza-bicyclo[3.2.1]oct-3-ylidenemethyl]-N-ethyl-benzamide Hydrochloride]  407 nM
37. CCNC(=O)c1ccc(C=C2CC3CCC(C2)N3CCc2ccccc2)cc1 [Cpd 50, N-Ethyl-4-(8-phenethyl-8-aza-bicyclo[3.2.1]oct-3-ylidenemethyl)-benzamide]  412 nM
38. CCNC(=O)c1ccc(C=C2CC3CCC(C2)N3CC=C(C)C)cc1 [Cpd 55]  1060 nM
39. CCN(CC)C(=O)c1ccc(C=C2CC3CCC(C2)N3)cc1 [Cpd 48, 4-(8-Aza-bicyclo[3.2.1]oct-3-ylidenemethyl)-N,N-diethylbenzamide]  4040 nM
40. CCNC(=O)c1ccc(C=C2CC3CCC(C2)N3Cc2[nH]cnc2C)cc1 [Cpd 37]  5490 nM
41. CCNC(=O)c1ccc(C=C2CC3CCC(C2)N3Cc2c[nH]cn2)cc1 [Cpd 46]  6520 nM
42. CCNC(=O)c1ccc(C(=C2CC3CCC(C2)N3)c2nnn[nH]2)cc1 (single isomer, unassigned) [Cpd 201]  10000 nM
43. CCNC(=O)c1ccc(C(=C2C[C@H]3CC[C@@H](C2)N3C(=O)Cc2ccccc2)c2cccnc2)cc1 (single isomer, unassigned) [Cpd 217]  10000 nM
44. CCNC(=O)c1ccc(C=C2CC3CCC(C2)N3Cc2ccc3c(c2)OCO3)cc1 [Cpd 54]  10000 nM
45. CCNC(=O)c1ccc(C=C2CC3CCC(C2)N3Cc2cccnc2)cc1 [Cpd 57]  10000 nM
46. CCNC(=O)c1ccc(C=C2CC3CCC(C2)N3CC#Cc2ccccc2)cc1 [Cpd 59]  10000 nM
47. CCNC(=O)c1ccc(C=C2CC3CCC(C2)N3Cc2ccccn2)cc1 [Cpd 56]  10200 nM
48. CCNC(=O)c1ccc(C=C2C[C@H]3CC[C@@H](C2)N3CCc2ccccc2)cc1 (single isomer, unassigned) [Cpd 42, (−)—N-Ethyl-4-(8-phenethyl-8-aza-bicyclo[3.2.1]oct-3-ylidenemethyl)-benzamide]  100000 nM

Same assay, conditions: rat brain δ opioid receptor binding; 10 nM solutions of the compounds; read-out: DOR binding Ki

In order of rising Ki:
1. CCNC(=O)c1ccc(C(=C2CC3CCC(C2)N3Cc2ccoc2)c2ccc3c(c2)OCO3)cc1 [Cpd 10]  1.08 nM
2. CCNC(=O)c1ccc(C(=C2CC3CCC(C2)N3Cc2ccsc2)c2ccc3c(c2)OCO3)cc1 [Cpd 7]  1.3 nM
3. CCNC(=O)c1ccc(C(=C2CC3CCC(C2)N3CC=C(C)C)c2cccc(C(=O)O)c2)cc1 (single isomer, unassigned) [Cpd 44]  2.2 nM
4. CCNC(=O)c1ccc(C(=C2CC3CCC(C2)N3Cc2ccco2)c2cnc3ccccc3c2)cc1 [Cpd 16]  4.69 nM
5. CCNC(=O)c1ccc(C(Br)=C2CC3CCC(C2)N3Cc2ccsc2)cc1 [Cpd 23]  6.92 nM
6. CCNC(=O)c1ccc(C(=C2CC3CCC(C2)N3Cc2ccsc2)c2cnc3ccccc3c2)cc1 [Cpd 15]  11.4 nM
7. CCNC(=O)c1ccc(C(=C2CC3CCC(C2)N3Cc2ccsc2)c2ccc(CO)cc2)cc1 (single isomer, unassigned) [Cpd 206]  16.8 nM
8. CCNC(=O)c1ccc(C(=C2CC3CCC(C2)N3Cc2ccc3ccccc3n2)c2ccccn2)cc1 [Cpd 13]  18.4 nM
9. CCNC(=O)c1ccc(C(Br)=C2CC3CCC(C2)N3Cc2ccco2)cc1 [Cpd 24]  22.4 nM
10. CCNC(=O)c1ccc(C(=C2CC3CCC(C2)N3CC=C(C)C)c2cccc(C(=O)O)c2)cc1 (single isomer, unassigned) [Cpd 45]  29.8 nM
11. CCNC(=O)c1ccc(C(Br)=C2CC3CCC(C2)N3Cc2sccc2C)cc1 [Cpd 28]  72.8 nM
12. CCNC(=O)c1ccc(C=C2CC3CCC(C2)N3Cc2cccs2)cc1 [Cpd 61]  81.5 nM
13. CCNC(=O)c1ccc(C(Br)=C2CC3CCC(C2)N3Cc2c[nH]cn2)cc1 [Cpd 39]  90.2 nM
14. CCNC(=O)c1ccc(C=C2CC3CCC(C2)N3Cc2ccoc2)cc1 [Cpd 36]  92.8 nM
15. CCNC(=O)c1ccc(C(Br)=C2CC3CCC(C2)N3Cc2ccc3ccccc3n2)cc1 [Cpd 25]  99.2 nM
16. CCNC(=O)c1ccc(C(Br)=C2CC3CCC(C2)N3Cc2ccc(NC(C)=O)cc2)cc1 [Cpd 21]  109 nM
17. CCNC(=O)c1ccc(C=C2CC3CCC(C2)N3CCc2ccccc2)cc1 [Cpd 62]  148 nM
18. CCN(CC)C(=O)c1ccc(C=C2CC3CCC(C2)N3Cc2ccsc2)cc1 [Cpd 52]  151 nM
19. CCNC(=O)c1ccc(C=C2CC3CCC(C2)N3Cc2ncc[nH]2)cc1 [Cpd 32]  250 nM
20. CCCCN1C2CCC1CC(=Cc1ccc(C(=O)NCC)cc1)C2 [Cpd 53]  295 nM
21. CCNC(=O)c1ccc(C=C2CC3CCC(C2)N3Cc2sccc2C)cc1 [Cpd 38]  5100 nM
22. CCNC(=O)c1ccc(C=C2CC3CCC(C2)N3Cc2ccc3ccccc3n2)cc1 [Cpd 35]  5180 nM
23. CCNC(=O)c1ccc(C=C2CC3CCC(C2)N3Cc2ccncc2)cc1 [Cpd 58]  10000 nM

Source: US20050004163A1, “3-(diarylmethylene)-8-azabicyclo[3.2.1]octane derivatives” (priority 2000, published 2005)
